The other results are listed elsewhere or left out.
Key:
Assay in all cases: glycan array binding signal (z-score within array); higher = stronger binding
Conditions in all cases: glycan notation: IUPAC condensed, linker removed
Fuc(a1-2)Gal = target: Fuc(a1-2)Gal
Procedure, shortened: (§1)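 Negative Z-scores can be read as non-binding. The Z-score is calculated within each array and then averaged across arrays of one protein sequence at different concentrations or buffers and across linkers. Arrays, 3228 in all, were curated from the Consortium for Functional Glycomics database and kept only where the protein sequence was available.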

Fuc(a1-2)Gal(b1-3)GalNAc = target: Fuc(a1-2)Gal(b1-3)GalNAc
Procedure, shortened: as §1

[1] = target: Fuc(a1-2)Gal(b1-3)GalNAc(a1-3)[Fuc(a1-2)]Gal(b1-4)Glc
Procedure, shortened: as §1

[2] = target: Fuc(a1-2)Gal(b1-3)GalNAc(a1-3)[Fuc(a1-2)]Gal(b1-4)GlcNAc
Procedure, shortened: as §1

[3] = target: Fuc(a1-2)Gal(b1-3)GalNAc(b1-3)Gal
Procedure, shortened: as §1

[4] = target: Fuc(a1-2)Gal(b1-3)GalNAc(b1-3)Gal(a1-4)Gal(b1-4)Glc
Procedure, shortened: as §1

[5] = target: Fuc(a1-2)Gal(b1-3)GalNAc(b1-4)[Neu5Ac(a2-3)]Gal(b1-4)Glc
Procedure, shortened: as §1

Fuc(a1-2)Gal(b1-3)GlcNAc = target: Fuc(a1-2)Gal(b1-3)GlcNAc
Procedure, shortened: as §1

[6] = target: Fuc(a1-2)Gal(b1-3)GlcNAc(b1-2)Man(a1-3)[Fuc(a1-2)Gal(b1-3)GlcNAc(b1-2)Man(a1-6)]Man(b1-4)GlcNAc(b1-4)GlcNAc
Procedure, shortened: as §1

[7] = target: Fuc(a1-2)Gal(b1-3)GlcNAc(b1-2)Man(a1-3)[Fuc(a1-2)Gal(b1-3)GlcNAc(b1-2)Man(a1-6)]Man(b1-4)GlcNAc(b1-4)[Fuc(a1-6)]GlcNAc
Procedure, shortened: as §1

[8] = target: Fuc(a1-2)Gal(b1-3)GlcNAc(b1-3)Gal(b1-4)Glc
Procedure, shortened: as §1

[9] = target: Fuc(a1-2)Gal(b1-3)GlcNAc(b1-3)GalNAc
Procedure, shortened: as §1

[10] = target: Fuc(a1-2)Gal(b1-3)GlcNAc(b1-3)[Fuc(a1-2)Gal(b1-3)GlcNAc(b1-6)]GalNAc
Procedure, shortened: as §1

[11] = target: Fuc(a1-2)Gal(b1-3)GlcNAc(b1-3)[Gal(b1-4)GlcNAc(b1-6)]Gal(b1-4)Glc
Procedure, shortened: as §1

[12] = target: Fuc(a1-2)Gal(b1-3)GlcNAc(b1-3)[Neu5Ac(a2-6)Gal(b1-4)GlcNAc(b1-6)]Gal(b1-4)Glc
Procedure, shortened: as §1

[13] = target: Fuc(a1-2)Gal(b1-3)GlcNAc6S
Procedure, shortened: as §1

[14] = target: Fuc(a1-2)Gal(b1-3)[Fuc(a1-4)]GlcNAc
Procedure, shortened: as §1

[15] = target: Fuc(a1-2)Gal(b1-3)[Fuc(a1-4)]GlcNAc(b1-2)Man(a1-3)[Fuc(a1-2)Gal(b1-3)[Fuc(a1-4)]GlcNAc(b1-2)Man(a1-3)]Man(b1-4)GlcNAc(b1-4)GlcNAc
Procedure, shortened: as §1

[16] = target: Fuc(a1-2)Gal(b1-3)[Fuc(a1-4)]GlcNAc(b1-2)Man(a1-3)[Fuc(a1-2)Gal(b1-3)[Fuc(a1-4)]GlcNAc(b1-2)Man(a1-6)]Man(b1-4)GlcNAc(b1-4)[Fuc(a1-6)]GlcNAc(b1-4)[Fuc(a1-6)]GlcNAc
Procedure, shortened: as §1

[17] = target: Fuc(a1-2)Gal(b1-3)[Fuc(a1-4)]GlcNAc(b1-3)[Fuc(a1-3)[Gal(b1-4)]GlcNAc(b1-6)]Gal(b1-4)Glc
Procedure, shortened: as §1

[18] = target: Fuc(a1-2)Gal(b1-3)[Fuc(a1-4)]GlcNAc(b1-3)[Gal(b1-4)GlcNAc(b1-6)]Gal(b1-4)Glc
Procedure, shortened: as §1

Fuc(a1-2)Gal(b1-4)Glc = target: Fuc(a1-2)Gal(b1-4)Glc
Procedure, shortened: as §1

Fuc(a1-2)Gal(b1-4)Glc6S = target: Fuc(a1-2)Gal(b1-4)Glc6S
Procedure, shortened: as §1

Fuc(a1-2)Gal(b1-4)GlcNAc = target: Fuc(a1-2)Gal(b1-4)GlcNAc
Procedure, shortened: as §1

[19] = target: Fuc(a1-2)Gal(b1-4)GlcNAc(b1-2)Man
Procedure, shortened: as §1

[20] = target: Fuc(a1-2)Gal(b1-4)GlcNAc(b1-2)Man(a1-3)[Fuc(a1-2)Gal(b1-4)GlcNAc(b1-2)Man(a1-6)]Man(b1-4)GlcNAc(b1-4)GlcNAc
Procedure, shortened: as §1

[21] = target: Fuc(a1-2)Gal(b1-4)GlcNAc(b1-2)Man(a1-3)[Fuc(a1-2)Gal(b1-4)GlcNAc(b1-2)Man(a1-6)]Man(b1-4)GlcNAc(b1-4)[Fuc(a1-6)]GlcNAc
Procedure, shortened: as §1

[22] = target: Fuc(a1-2)Gal(b1-4)GlcNAc(b1-2)[Fuc(a1-2)Gal(b1-4)GlcNAc(b1-4)]Man(a1-3)[Fuc(a1-2)Gal(b1-4)GlcNAc(b1-2)Man(a1-6)]Man(b1-4)GlcNAc(b1-4)GlcNAc
Procedure, shortened: as §1

[23] = target: Fuc(a1-2)Gal(b1-4)GlcNAc(b1-3)Gal(b1-4)GlcNAc
Procedure, shortened: as §1

[24] = target: Fuc(a1-2)Gal(b1-4)GlcNAc(b1-3)Gal(b1-4)GlcNAc(b1-2)Man(a1-3)[Fuc(a1-2)Gal(b1-4)GlcNAc(b1-3)Gal(b1-4)GlcNAc(b1-2)Man(a1-6)]Man(b1-4)GlcNAc(b1-4)GlcNAc
Procedure, shortened: as §1

B1: Nc3LysM (protein)
chain: QFTVPPDTTAEPNTIKTCTWWHVAGSGDSCTSIASTYGITSEQFARWDMETTDSPKNPSVATACKLTVGNSYCIENNFGQDDPPTPSISSSTLIGTATTSTTASTTTGNGISTPTPIQEGMETATTTTSSGNGITTPTPTQAGMETVGNCDRFHLVKSGDQCGTIASTYGITLANFYSWNPAVGTSCQSLWLDTYVCVRTIGFVPPKTTTTTTKKPTSTTSAGGVATPTPTQPGMETVSGCKKFHKGRGNVSTVASGDQCGTIATRYGISLANFYSWNPAVGSSCQTLWLDYYVCVGR
B1 was tested, and the “glycan array binding signal (z-score)” value (Fuc(a1-2)Gal) was -0.045, the “glycan array binding signal (z-score)” value (Fuc(a1-2)Gal(b1-3)GalNAc) was -0.011 and the “glycan array binding signal (z-score)” value [1] was -0.272. For the same binder, the “glycan array binding signal (z-score)” value [2] was -0.03, the “glycan array binding signal (z-score)” value [3] was -0.014 and the “glycan array binding signal (z-score)” value [4] was 0.066. For the same binder, the “glycan array binding signal (z-score)” value [5] was 0.115, the “glycan array binding signal (z-score)” value (Fuc(a1-2)Gal(b1-3)GlcNAc) was -0.102 and the “glycan array binding signal (z-score)” value [6] was -0.199. For the same binder, the “glycan array binding signal (z-score)” value [7] was -0.202, the “glycan array binding signal (z-score)” value [8] was 0.008 and the “glycan array binding signal (z-score)” value [9] was -0.059. For the same binder, the “glycan array binding signal (z-score)” value [10] was 0.2, the “glycan array binding signal (z-score)” value [11] was -0.155 and the “glycan array binding signal (z-score)” value [12] was -0.314. The “glycan array binding signal (z-score)” value [13] was 0.034, the “glycan array binding signal (z-score)” value [14] was 0.118 and the “glycan array binding signal (z-score)” value [15] was 0.066. The “glycan array binding signal (z-score)” value [16] was -0.192, the “glycan array binding signal (z-score)” value [17] was -0.135 and the “glycan array binding signal (z-score)” value [18] was -0.179. The “glycan array binding signal (z-score)” value (Fuc(a1-2)Gal(b1-4)Glc) was 0.401, the “glycan array binding signal (z-score)” value (Fuc(a1-2)Gal(b1-4)Glc6S) was 0.121 and the “glycan array binding signal (z-score)” value (Fuc(a1-2)Gal(b1-4)GlcNAc) was -0.219. The “glycan array binding signal (z-score)” value [19] was -0.104, the “glycan array binding signal (z-score)” value [20] was -0.124 and the “glycan array binding signal (z-score)” value [21] was -0.258. For the same binder, the “glycan array binding signal (z-score)” value [22] was -0.032, the “glycan array binding signal (z-score)” value [23] was -0.004 and the “glycan array binding signal (z-score)” value [24] was -0.037.

From the supplement of paper PMC8728848
